Data: PubChem BioAssay AID720542 (National Center for Advancing Translational Sciences (NCATS), 2013)
The campaign covered roughly 360,000 compounds. About 740 (0.21%) were called active. Inconclusive results, whose numbers are uncertain, are shown with a selection of clear calls. The call rests on the fitted dose curve; in most records, active means well fitted inhibition curve with a large enough effect; inconclusive means small, poorly fitted or top-dose-only effect; inactive means no such curve, though single readings can be large or run the other way. No potency is given beside an inconclusive call; the fits are too rough.

Test system: Plasmodium falciparum AMA1 (3D7) - RON2 peptide interaction
Assay: qHTS for Inhibitors of AMA1-RON; Towards Development of Antimalarial Drug Lead: Primary Screen; further: nearly all actives have a fitted effect of over 45% in size;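 on activity change, negative = inhibition: 0% = vehicle wells and -100% = peptide control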
Conditions: AlphaScreen AMA1-biotinylated RON2 peptide binding; activity change, negative = inhibition: at 58.2 µM (top of the series) unless noted
In short: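 AMA1 (3D7) with his tag at 25 nM final met compounds first, then biotinylated RON2 peptide at 25 nM; detection used donor plus acceptor beads, 10 µg/mL apiece, read by AlphaScreen after 30 min at room temperature.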
Potency means the concentration at half of the fitted maximal effect; tags describe the fitted curve by direction and shape.

Row | SMILES | Potency | activity change, negative = inhibition
1 | CCOC(=O)C1=C(C)N=c2s/c(=C\c3ccc(OC(C)=O)cc3)c(=O)n2C1/C=C/c1ccccc1 (stereo not given) | inconclusive [inhibitor, partial curve] | 
2 | Cc1ccc(NC(=O)COC(=O)COc2ccc(Cl)cc2)c([N+](=O)[O-])c1 | inconclusive [inhibitor, partial curve] | 
3 | Oc1cc2c(cc1CN1CCN(c3ccccc3F)CC1)OCO2 | inconclusive [inhibitor, single point] | 
4 | CCC(C)NC(=O)CSc1ccc(Cl)cc1 (stereo not given) |  | inconclusive: -15.7% [inhibitor]
5 | CC1=CC(C)(C)n2c(O)c(N=N)c3c(C)c(C)cc1c32 | inconclusive [inhibitor, partial curve, poor fit] | 
6 | Cc1cc(NC(=O)C(C)SCC(=O)Nc2cc(C(F)(F)F)ccc2N2CCCCC2)no1 (stereo not given) | inactive | 
7 | N#Cc1nc(COc2cccc(Cl)c2)oc1N1CCN(c2ccccc2)CC1 | inconclusive [inhibitor, partial curve] | 
8 | CCCCCN=CC1=C(O)CC(c2ccccc2)CC1=O (stereo not given) | inactive | 
9 | CCN(CC)c1ccc(NC(=O)COc2ccc(N(C)S(=O)(=O)c3cccs3)cc2)cc1 | inconclusive [inhibitor, partial curve] | 
10 | COc1cccc(NC(=O)C2CC(=O)n3cnnc3S2)c1 (stereo not given) | inconclusive [inhibitor, single point] | 
11 | C#CCOCCOCCOCCNc1nc(N2CCN(C(=O)CCCCCCCCCCNC(=O)Cn3cc(CCCCCN)nn3)CC2)nc(N2CCN(C(=O)CCCCCCCCCCNC(=O)[C@H]([C@@H](C)CC)n3cc(CCCCN=C(N)N)nn3)CC2)n1 | inconclusive [inhibitor, single point] | 
12 | O=C(COc1ccccc1[N+](=O)[O-])Nc1ccccc1N1CCCC1 | inconclusive [inhibitor, partial curve] | 
13 | c1ccc2c(OCCCCN3CCCC3)cccc2c1 | inconclusive [inhibitor, partial curve] | 
14 | Cc1cc([N+](=O)[O-])cc([N+](=O)[O-])c1NCC(C)C | inconclusive [inhibitor, partial curve] | 
15 | COc1ccccc1CNC(=O)CSc1ccc(-c2ccccn2)nn1 | inconclusive [inhibitor, single point] | 
16 | CCc1noc(C)c1C(=O)NNC(=O)c1ccc(F)cc1 | inconclusive [inhibitor, single point] | 
17 | CCc1cc(C(=O)NC2CCCc3c2cnn3-c2ccc(F)cc2F)no1 (stereo not given) | inactive | 
18 | CCOc1cc(CN2CCN(C(=O)Cc3ccccc3)CC2)ccc1OC | inconclusive [inhibitor, partial curve] | 
19 | CN1CCc2c(C#N)c(N3CCCCC3)nc(NCc3ccccc3)c2C1 | inactive | 
20 | Cc1cccnc1NC(=O)CN1C(=O)NC(C)(c2ccc3ccccc3c2)C1=O (stereo not given) | inconclusive [inhibitor, partial curve, poor fit] | 
21 | CC(=O)OCCNc1cc(N2CCN(C)CC2)c2noc3c2c1C(=O)c1ccccc1-3 | inconclusive [inhibitor, full curve] | 
22 | Cc1cc(NC(=O)CSc2nnc(COc3ccccc3)o2)no1 | active: 11.2 µM | 

Row | SMILES | Potency | activity change, negative = inhibition
23 | Nc1nc(N)c2cc(S(=O)(=O)c3ccc4ccccc4c3)ccc2n1 | inactive | 
24 | O=C1NC(=S)NC(=O)C1=Cc1cccn1-c1ccc(O)cc1 | inconclusive [inhibitor, single point] | 
25 | Cc1ccc(-c2c[n+](CC(=O)c3cccs3)c3n2CCC3)cc1 | inconclusive [inhibitor, single point] | 
26 | CC1CC(=O)Nc2ccccc2N1S(=O)(=O)c1ccccc1 (stereo not given) | inconclusive [inhibitor, single point] | 
27 | Cc1ccc(-n2ncc3c(SCc4ccccc4)ncnc32)cc1 | inactive | 
28 | COc1ccc(C(CC(=O)N2CCN(c3ccccc3)CC2)c2c(O)cc(OC)cc2OC)cc1 (stereo not given) | inconclusive [inhibitor, single point] | 
29 | CN(c1ccc([N+](=O)[O-])cc1)c1cc2c(c3c1ccn3C)C1CCC2C1 (stereo not given) | inconclusive [inhibitor, partial curve] | 
30 | CCOC(=O)C(=NCC1CCCO1)NNc1cc(Cl)ccc1Cl (stereo not given) | inconclusive [inhibitor, partial curve] | 
31 | CCCC1=NN2C(=N)/C(=C\c3ccc(SCc4ccco4)o3)C(=O)N=C2S1 | inactive | 
32 | COc1ccc(C2=Nn3c(nnc3-c3ccccn3)SC2)cc1OC | inconclusive [inhibitor, single point] | 
33 | Cc1cccc(Oc2ccc(NC(=O)c3ccccc3C(=O)O)cc2)c1C | inconclusive [inhibitor, partial curve] | 
34 | CN(C)c1ccc(-c2ccnc3c2CC(C)(C(=O)Nc2ccc(Cl)c(C(F)(F)F)c2)O3)cc1 (stereo not given) | inconclusive [inhibitor, single point] | 
35 | COc1cc(O)c(C(CCN2CCOCC2)c2ccc(N(C)C)cc2)c(OC)c1 (stereo not given) | active: 20 µM | 
36 | CCOc1ccc(N/C=C/C(=O)c2ccccc2)c([N+](=O)[O-])c1 | inconclusive [inhibitor, full curve] | 
37 | COc1ccc(CN2C(=O)/C(=C/c3ccncc3)SC2=S)cc1 | inconclusive [inhibitor, partial curve] | 
38 | CN(CC(=O)Nc1ccc(N2CCOCC2)cc1)C(=O)c1cn(-c2ccccc2)nc1-c1ccccc1 | inconclusive [inhibitor, partial curve] | 
39 | CCOC(=O)N1CCC(N2CCN(S(=O)(=O)c3ccc4ccccc4c3)CC2)CC1 | inconclusive [inhibitor, partial curve] | 
40 | CN(C)C(=S)N=c1ssc(=S)n1Cc1ccccc1 | inconclusive [inhibitor, partial curve] | 
41 | COc1ccccc1/C=C/CN1CCN(c2ccccc2)CC1 | inconclusive [inhibitor, single point] | 
42 | COc1ccc(-c2ccc3[nH]c4c(c3c2)CCN2C(=O)[C@@H]([C@H](C)O)[C@@H](N(C)C(=O)Nc3ccc(F)cc3)C[C@@H]42)cc1 | inconclusive [inhibitor, partial curve] | 
43 | CCOC(=O)C1=C(N)N(c2ccccc2)C2=C(C(=O)CCC2)C1c1cccnc1 (stereo not given) | inactive | 
44 | C=CC(=O)Nc1cccc(CN2C(=O)N(c3cc(OC)cc(OC)c3)Cc3cnc(NCCCCN(CC)CC)nc32)c1 | inconclusive [inhibitor, single point] | 

Row | SMILES | Potency | activity change, negative = inhibition
45 | CC1CCCC(C)N1/N=C/c1ccc([N+](=O)[O-])cc1 (stereo not given) | inconclusive [inhibitor, partial curve] | 
46 | Nc1ccccc1SCC(=O)Nc1nc(-c2ccccc2)cs1 | inconclusive [inhibitor, single point] | 
47 | Cc1ccc(C(=O)O/N=C\c2ccc(N3CCCCC3)c([N+](=O)[O-])c2)cc1 | inconclusive [inhibitor, partial curve] | 
48 | COc1ccccc1C(=O)Nc1ccc(N2CCCCC2)cc1 | inconclusive [inhibitor, partial curve] | 
49 | O=C1C(Nc2ccccc2)=C/C(=N/S(=O)(=O)c2cccs2)c2ccccc21 | inconclusive [inhibitor, full curve] | 
50 | CCc1nn2cc(C(=O)c3cc(C)ccc3O)cnc2c1-c1ccc(F)cc1 | inconclusive [inhibitor, partial curve] | 
51 | Cc1ccc(C(=O)CSc2nnc(CNc3ccc(C)cc3C)n2Cc2ccco2)cc1 | inconclusive [inhibitor, partial curve] | 
52 | CC(=O)Nc1ccc(NC(=O)c2ccccc2F)cc1 | inactive | 
53 | O=C(COC(=O)/C=C/c1ccc(Cl)cc1)Nc1ccccc1-c1ccccc1 | inactive | 
54 | CC1(C)Cc2c(sc(NC(=O)COc3ccccc3)c2C#N)C(C)(C)N1 | inactive | 
55 | COc1cccc(CNc2ncc(-c3ccccc3)n2C)c1 | inconclusive [inhibitor, single point] | 
56 | O=C1S/C(=C\C=C\c2ccco2)C(=O)N1c1ccccc1 | inconclusive [inhibitor, partial curve] | 
57 | COc1cc(C2c3cc4c(cc3OC(NCCc3ccccc3)C2C)OCO4)cc(OC)c1OC (stereo not given) | inconclusive [inhibitor, single point] | 
58 | O=C(Nc1nccs1)c1ccc(Cl)nc1 | inactive | 
59 | O=C(CCSc1ccc(F)cc1)Nc1ccc(-n2cnnn2)cc1 | inconclusive [inhibitor, single point] | 
60 | O=C1C=C(c2c(O)ccc3ccccc23)c2ccccc2C1=O | inconclusive [inhibitor, partial curve] | 
61 | CCOc1ccc(CCNC(=O)C(CC)n2nc(C)n3c(cc4sccc43)c2=O)cc1OCC (stereo not given) | inconclusive [inhibitor, partial curve] | 
62 | O=C(N/N=C/c1ccc2c(c1)OCO2)c1ccc(NC(=O)c2ccc(F)cc2)cc1 | inactive | 
63 | COc1ccc(-c2cn(-c3ccc(C)cc3)c(=O)n2CC(=O)Nc2ccc(OC)c(OC)c2)cc1 | inconclusive [inhibitor, partial curve] | 
64 | COc1ccc(N2CCN(CC(O)COC(c3ccccc3)c3ccccc3)CC2)cc1 (stereo not given) | inconclusive [inhibitor, single point] | 
65 | CCOc1ccc(N2C(=O)C3ON(c4ccccc4)C(c4ccco4)C3C2=O)cc1 (stereo not given) | inconclusive [inhibitor, single point] | 
